Source: article PMC4336329 (PLoS ONE, 2015)
The campaign covered roughly 310,000 compounds. About 2,200 (0.71%) showed an effect of 50% or more. The effect is printed as a negative number. This is one part of the list.

These compounds were tested against human ether-à-go-go-related gene (hERG) potassium channel (human, UniProt Q12809) (assay: primary screen, population patch clamp on CHO cells stably expressing hERG).
human ether-à-go-go-related gene (hERG) potassium channel, sequence (Q12809 whole entry, looked up): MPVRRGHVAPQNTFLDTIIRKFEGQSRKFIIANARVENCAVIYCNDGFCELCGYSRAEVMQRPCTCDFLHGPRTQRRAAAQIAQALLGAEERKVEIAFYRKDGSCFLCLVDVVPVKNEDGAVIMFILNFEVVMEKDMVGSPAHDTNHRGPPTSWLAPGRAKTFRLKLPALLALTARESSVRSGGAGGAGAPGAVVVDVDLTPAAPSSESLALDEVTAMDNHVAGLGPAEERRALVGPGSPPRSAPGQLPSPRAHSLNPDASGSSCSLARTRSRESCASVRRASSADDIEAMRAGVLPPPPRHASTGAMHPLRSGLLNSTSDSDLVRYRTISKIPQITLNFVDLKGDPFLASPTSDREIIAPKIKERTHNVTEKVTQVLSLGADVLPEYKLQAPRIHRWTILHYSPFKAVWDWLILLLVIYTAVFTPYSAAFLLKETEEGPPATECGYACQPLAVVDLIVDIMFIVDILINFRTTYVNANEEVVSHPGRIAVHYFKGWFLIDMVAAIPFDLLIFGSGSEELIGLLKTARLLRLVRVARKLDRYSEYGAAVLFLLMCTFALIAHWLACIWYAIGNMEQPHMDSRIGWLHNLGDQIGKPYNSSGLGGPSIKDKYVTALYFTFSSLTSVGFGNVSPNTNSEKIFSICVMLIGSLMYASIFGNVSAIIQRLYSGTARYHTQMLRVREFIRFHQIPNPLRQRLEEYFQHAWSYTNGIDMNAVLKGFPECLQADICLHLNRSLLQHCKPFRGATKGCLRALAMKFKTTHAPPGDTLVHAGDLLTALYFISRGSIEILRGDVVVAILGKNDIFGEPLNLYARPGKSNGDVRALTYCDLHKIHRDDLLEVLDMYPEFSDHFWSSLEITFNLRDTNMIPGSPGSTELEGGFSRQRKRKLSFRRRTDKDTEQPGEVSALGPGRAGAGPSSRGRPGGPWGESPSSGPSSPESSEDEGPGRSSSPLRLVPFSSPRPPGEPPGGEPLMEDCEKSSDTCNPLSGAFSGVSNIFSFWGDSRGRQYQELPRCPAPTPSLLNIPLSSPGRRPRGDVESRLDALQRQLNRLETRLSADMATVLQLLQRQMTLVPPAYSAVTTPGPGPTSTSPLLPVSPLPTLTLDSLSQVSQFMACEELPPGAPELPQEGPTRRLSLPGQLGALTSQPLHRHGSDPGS

Compound | hERG current change (%, negative = inhibition) at 1uM [%]
Cc1cc2c3c(c1C)C1(C(=O)N3C(C)(C)CC2C)C(C#N)=C(N)Oc2n[nH]c(C)c21 (stereo not drawn) | -0.155
Cc1csc(SCC(=O)NC(=O)NCCC(C)C)n1 | -2.18
CCCN(CCC)C(=O)C1CC(=O)OC12CCOC(C)(C)C2 (stereo not drawn) | 11
CCC(=O)N1c2ccc(S(=O)(=O)CCC(=O)Nc3ccc(OC)cc3OC)cc2CC1C (stereo not drawn) | 13.1
O=C(c1cc2ccccc2c(=O)o1)N1CCCc2ccccc21 | 12.5
Cc1cc2oc(=O)ccc2cc1[N+](=O)[O-] | 13.6
COc1cc(OC)cc(C(=O)OCC(=O)Nc2ccc(F)cc2F)c1 | 8.11
O=C(c1cc(-c2ccc(F)cc2)on1)N1CCOCC1 | 12.5
COc1ccc(Cl)cc1NC(=O)CN(C)C(=O)c1ccc(N2CCCCCC2)c([N+](=O)[O-])c1 | 11.2
CC(C)C1Nc2ccc(C(=O)NCCCN3CCOCC3)cc2NC1=O (stereo not drawn) | 10
COc1cc(C(C(=O)NC2CCCC2)N(CCO)C(=O)Cn2nnc(-c3ccc(C)o3)n2)ccc1O (stereo not drawn) | 11.9
Cc1cccc(C)c1NC(=O)CNC(=O)C12CC3CC(CC(O)(C3)C1)C2 | 17.5
O=C(NCC(=O)N(c1cccc(F)c1)C(C(=O)NC1CCCC1)c1ccco1)c1ccco1 (stereo not drawn) | 14.1
CCN(c1ccc(NC(=O)COC(=O)c2ccc(C)s2)cc1)C(C)C | 13.2
CCC(C)C(NC(=O)C1CCC(C)CC1)C(=O)NCc1ccccn1 (stereo not drawn) | 2.86
COc1ccccc1/C=C/C(=O)c1ccc(NC(C)=O)cc1 | 10.7
CCOC(=O)Cn1c(COc2ccccc2OC)[n+](C)c2ccccc21 | 10.7
COc1ccccc1NC(=O)CSc1nnc(-c2ccncc2)o1 | 12.2
Cc1ccc(C(=O)Nc2cc([N+](=O)[O-])ccc2C)cc1 | 0.416
Cc1ccc(NS(=O)(=O)c2cc(C(=O)O)ccc2Cl)c(C)c1 | 6.76
Cl.Nc1cc(Cl)ccc1N1CCCC1 | 8.35
O=C(Nc1cccc([N+](=O)[O-])c1)c1ccc2nc(N3C(=O)CCC3=O)sc2c1 | -1.85
Cc1cc(N/C=C/C(=O)c2cccc3ccccc23)no1 | 11.3
COc1cc(C(=O)OCC(=O)N2c3ccccc3NC(=O)C2(C)C)ccc1OCC(C)C | 9.03
